Measurements taken from the supplement of paper PMC12632987.
In all, about 2,300 sequences were measured (“median log2 fold change of GCK-ALFA target abundance (FLAG IP / Myc IP barcode read proportion)”: median about 0.095, lowest 2% from about -0.47 on). The list shows a part of the results.

B1: LC3A_3_1488 (protein)
chain: MEELLEEARRVLRERGASEEQIEAVLADLERVLELGYEETVREFIRLLRERPDLSPEQIVAAAGTILDRVEEEDLTEEEAVEYARRVMEDVAEIEELEEE
B2: LC3A_37_1343 (protein)
chain: EEKWVIVVVANSEEAYEKAKKEAEKEAKAIGAELRTKLLPETATEQELIDAAEELAKEVAEEIAKKTGKEVESSSIIEVDRDEETGEIVVTKYVLLTIKP
B3: LC3A_147_450 (protein)
chain: VLYEITVDILFKNDPELAEEVEEEIKEIAEKYGGEVEVEREVEQETPTTTLYFVRVTIKFEDEEKALEAEQEISELLDETAKKHPEKFVGAMISIEKIEE
B4: LC3A_147_470 (protein)
chain: YKTEVDIDILTKDAEEEVIKALKEIAEELKKEGYKVELKIETEKLPDGTTYIEATITIEAETLEEAEKAANKVISLIDEMEEKLKDKILGSLISVSIEKK
B5: LC3A_free_8_2536 (protein)
chain: KREEILRKISEILDRTEKEVEEAGKKLGVDRIDILELQLLIGEAIIAAHEAPFRSLEETREEILEALKEAEEEAKKLSPEIAKIVREAREEVEALLEEAL
B6: LC3A_free_8_2545 (protein)
chain: KTEEFLAKVSKLLDELEEEIEEKAKELGLSELDILDLSLLVGETLAEMLDASEEGPEKALEAVKEGLKEVIEEAKELSEELAKFVKEKAEKLLKEAEKLL
B7: LC3A_3_1545 (protein)
chain: MDALRAATLAALRAAGASDAVLAAAAAAFDALAARGYDEAAAVLAAEARALADLPDDILLWFFEDVLAYVETEDADEEEVIAKIRELAATARAEGEIEEL
B8: LC3A_3_1701 (protein)
chain: MEELLEEARKILTEQGRSEETIEAALAALKALLDRGYEEAAKTLLELLKESGDLSDETLLAFFEDVLAYVETEDASEEEVIAFIKHEYKVAKNDQEIEEL
B9: LC3A_free_12_2128 (protein)
chain: SHEEMLEGFTDLAIAAAEVNVELAKEMLKELIDMGEAEGAVKVIIALAKSGKVSEEELIELIKELVDKAKPSKEQLKKLKEALKKLGKEEAAAYVEELLK
B10: LC3A_28_930 (protein)
chain: MTVEEIKAHIREVADEAIAKGEDAYIEIEIGSDTTVEEAEEIMDELEREAARLAAAGLKVNVVIDLDNVSQEVLDTVLSKADEINEKYPRVNVYIALDEE
B11: LC3A_28_928 (protein)
chain: MTVEEIKEKIKKEADEAIKKGEDAYIEIEIGSSYTKEEAEEIMETLREEAKKLAEAGLKVSVVIDLDNVSQEVLDTVLDKADEINEEYPLVNVIIALDEE
B12: LC3A_28_823 (protein)
chain: SAVDERNAKVLAEAKALAAAGEERTITVTVESSDTLEDIEKTAETIKEIAEILKPLDSVTILIDLTEPISPESLKKLADTGDEVEKKYPNVTVIIALPEE
B13: LC3A_132_305 (protein)
chain: GEKLAEELIKKAKEALELAKTDPEKKEEILKLLEEIRKLMEELKKKASPELAAKAFEEVMEIMLELSRVASKQGWDEVADEAFALAAEAAQLAAEAKAKL
B14: LC3A_3_1476 (protein)
chain: MEERVEEVLKELREAGWSEEALEKVREAAEKLKELGHEKALETFLEEMRELKDLPSELVLEAAEEVLEAIEKYKDDEEKLIEEIKSIAAATKAEGEIIEL
B15: LC3A_17_583 (protein)
chain: SEEIKKKIEELLKELEKLIKKAKELGIPKAKEIEKLLEKAKKELKEGKLKEAAELLEEAARLLADAFDEIEEEKGDEASLLSMEAEGLELEAIGLLLKLE
B16: LC3A_37_1345 (protein)
chain: EEIDVIIVVANDEETFEKYKKEAEEEAEKLNAELIAELLPESATVQELVDKAEELAEEKVKEIEEKSGKEVESSSIIEIEKDEETGKYAVILYVLITLKE
B17: LC3A_141_372 (protein)
chain: TTTTETWTVGEASLDELLAAVDAAFALVEEKLAANPDAVVTVTLTLTVYDEETKETTTITETYTVTKENLELVKEGAEIAVESASLKGKTTLTITLTFDE
B18: LC3A_3_1352 (protein)
chain: MEELIERAVERLREAGLSEEAIAAARAAMEALAAQGHEEAIERLTEVLLKHKDAPEEHIIAALNNLTAELKANPNLTEEEVLELVELFDADLAIEPLEEE
B19: LC3A_free_8_2449 (protein)
chain: SAEEATRTALEGLDRLEEELVALAKKLGLSRLDILDIELLVGSTIADVISNRDKTPEEILKTTEEGLKEILEEAKKLGEELAKLAEKLSKEILERLKAIA
B20: LC3A_36_1340 (protein)
chain: QKVITATAKEEDIKKATAKANAEGADLRLEFSPETTVEEIEKALNLVLELSKNISNIIIDLDAKTQEELQKKLVVASKVADKIEKENGKNVIIAYDVVEP
B21: LC3A_132_313 (protein)
chain: SEKKYEEIKKKLEELLKEAEKNINDKEKVEELLKEIRKLLEEAEKELSPEQVKELYDFVADRLYKLSLKADEAGKEDVSLLLDAAAIEAASKALKAEKKI
B22: LC3A_28_738 (protein)
chain: SAIEKELEKAIKEAKEAAKAKEPKVITITVPGTANEEDIELVIKALEEIAEILKDVKDQAIIIDVDGKLDPELLKKLMDKAEEIEEKYPNVTVIIALDEE
B23: LC3A_28_1061 (protein)
chain: SEVEEEIERALAEAREAVAAGEEALVTLTINEKDTEEDVEKKLETMREIAELAKSLPRVTIIVDVDSERKEEITKKVSEVGDELEKKYPNVTVIIALSEE
B24: LC3A_147_497 (protein)
chain: VKVKIEFENISEELKEKIEELAKKLEELAKKYKGKIKVNIIIDILDKDGGYARIELEAYVENEEEAKKLINEVIDLVEEFEEENKDLVSAVVISAEIEEP
B25: LC3A_3_1688 (protein)
chain: MEEKVEEVLKLAKENGLSEEALKALKELLEALAERGYLKAIEEVYEELKKLKNVSSEDIKAMFEELLKEVKEKDLSEEEIVELIREEARVLLNASEIIEL
B26: LC3A_3_1444 (protein)
chain: MEEILEEARKVAEEIGLSEEAIEAVLRLIKKALEAGEVEGAKELIEVLKESKDVPSEEILEIAERALRRIEEEGVSVKEAIEEFIEELRVLRLEKEIEEL
B27: LC3A_3_1875 (protein)
chain: MDEKIEETIELLKEAGASEETIEKFEEVAELLKERGYEEALETLIEEVKKLAGTSDEILLDFLEEVLEVLKTKDLSEEELIEEIKRIARLALNEAEIIEL
B28: LC3A_28_1102 (protein)
chain: SELEENLEKALAEVKKAAERGEEVLVTINVGEDATEEDLEKLKETLEEMAEIAKDLPRLTVIINLDGEGAEEKANILGEHAEELEKKYPNLTIIIALPED
B29: LC3A_3_1898 (protein)
chain: MDERVAATLERLRAAGASEETLAAFERVAKKLKERGYDEALETLIEELERLAGLPSELLLAFLEEVLEVLETEDLSEEELIERIKEIARLTLNEGEIIEL

Target: MAP1LC3A, Q9H492
Test: median log2 fold change of GCK-ALFA target abundance (FLAG IP / Myc IP barcode read proportion) (log2 ratio); each designed protein is fused to an ALFA-tag nanobody in HEK293 cells to bring the named protein to FLAG-tagged glucokinase (GCK); Myc marks an untargeted standard; higher = target protein stabilised (more abundant)
Settings: target protein: 3xFLAG-MCP-GCK-ALFA reporter; HEK293 landing pad (RPLP)
Outline: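 An ALFA-nanobody-fused binder library was recombined into HEK293 landing-pad cells and induced with 2 μg mL^−1 doxycycline. Cells were transfected with a plasmid expressing a FLAG-tagged target and a Myc-tagged standard. After 48 h, lysates underwent anti-FLAG and anti-Myc immunoprecipitation, and circular RNA barcodes were reverse transcribed, amplified and sequenced. Target abundance is the per-binder median log2 ratio of FLAG to Myc barcode read proportions. Barcodes needed ≥10^−7 proportion in both replicates, binders ≥3 barcodes per replicate, and a 10^−6 pseudocount was added; the two replicates were pooled.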

Binder | median log2 fold change
B1 | 0.113
B2 | 0.102
B3 | -0.716
B4 | -0.397
B5 | -0.187
B6 | -0.129
B7 | 0.253
B8 | 0.215
B9 | 0.127
B10 | -0.0657
B11 | -0.367
B12 | 0.266
B13 | 0.108
B14 | 0.254
B15 | -0.14
B16 | -0.237
B17 | 0.35
B18 | 0.124
B19 | -0.0345
B20 | 0.325
B21 | -0.171
B22 | 0.167
B23 | -0.118
B24 | 0.302
B25 | 0.389
B26 | 0.164
B27 | 0.289
B28 | 0.205
B29 | 0.245
